# Data: PubChem BioAssay AID504332 (National Center for Advancing Translational Sciences (NCATS), 2011)
# Among all 350,000 compounds or so, about 31,000 (8.9%) were called active. Inconclusive means that the source gave no clear call. Such entries were picked first, then a sample of the others. Calls follow the shape of the dose curve; as a rule, active = well fitted inhibition curve with a large enough effect; inconclusive = small, poorly fitted or top-dose-only effect; inactive = no such curve, though single readings can be large or run the other way. Potencies of inconclusive entries are doubtful fits and often do not repeat.
# Target: Histone-lysine N-methyltransferase EHMT2 (Homo sapiens) (UniProt Q96KQ7)
# Sequence of UniProt Q96KQ7 (Q96KQ7 whole entry, looked up): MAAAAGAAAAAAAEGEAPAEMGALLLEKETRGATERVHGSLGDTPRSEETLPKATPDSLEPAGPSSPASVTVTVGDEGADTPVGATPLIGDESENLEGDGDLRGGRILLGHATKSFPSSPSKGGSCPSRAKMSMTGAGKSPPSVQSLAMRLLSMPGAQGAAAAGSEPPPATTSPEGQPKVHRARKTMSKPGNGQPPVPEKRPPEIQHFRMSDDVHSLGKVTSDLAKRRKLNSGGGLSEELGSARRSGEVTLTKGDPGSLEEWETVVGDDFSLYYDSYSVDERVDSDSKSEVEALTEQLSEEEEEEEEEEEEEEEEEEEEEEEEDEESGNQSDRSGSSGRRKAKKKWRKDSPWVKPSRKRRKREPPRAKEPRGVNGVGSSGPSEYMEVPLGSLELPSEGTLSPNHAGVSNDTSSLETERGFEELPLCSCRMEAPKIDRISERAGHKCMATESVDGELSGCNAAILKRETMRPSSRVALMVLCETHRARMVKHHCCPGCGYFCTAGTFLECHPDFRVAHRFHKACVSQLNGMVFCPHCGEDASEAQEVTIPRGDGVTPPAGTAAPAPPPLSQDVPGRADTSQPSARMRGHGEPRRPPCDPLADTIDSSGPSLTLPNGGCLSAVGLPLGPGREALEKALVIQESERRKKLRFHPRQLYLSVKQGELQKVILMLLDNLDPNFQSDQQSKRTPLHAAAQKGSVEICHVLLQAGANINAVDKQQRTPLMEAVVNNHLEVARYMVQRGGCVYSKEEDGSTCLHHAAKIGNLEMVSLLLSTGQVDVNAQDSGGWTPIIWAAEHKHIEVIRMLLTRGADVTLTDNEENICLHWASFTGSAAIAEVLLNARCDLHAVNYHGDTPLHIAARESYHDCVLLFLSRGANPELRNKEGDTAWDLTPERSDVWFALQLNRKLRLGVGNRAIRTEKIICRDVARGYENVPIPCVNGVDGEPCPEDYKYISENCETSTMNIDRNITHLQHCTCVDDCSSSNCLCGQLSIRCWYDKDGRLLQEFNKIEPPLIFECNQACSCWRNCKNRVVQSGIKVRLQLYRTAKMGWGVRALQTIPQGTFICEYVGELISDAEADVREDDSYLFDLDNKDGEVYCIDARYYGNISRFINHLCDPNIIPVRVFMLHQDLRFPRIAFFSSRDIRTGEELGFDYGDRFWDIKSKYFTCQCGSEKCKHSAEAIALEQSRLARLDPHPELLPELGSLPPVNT
# Experiment: qHTS Assay for Inhibitors of Histone Lysine Methyltransferase G9a; also: nearly all actives have a fitted effect of over 75% in size
# Conditions: G9a H3K9 monomethylation, AlphaScreen, 2 h; activity, negative = inhibition: at 59 µM (top of the series) unless noted
# Procedure, shortened: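 Step 1: enzyme (final 20 nM) with compound, 15 min RT. Step 2: substrate peptide 500 nM and SAM 20 uM, 2 h RT. Step 3: anti-H3K9me1 antibody and AlphaScreen beads, 10 min, then plate read.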
# % is scaled to controls: 0 for no effect and ±100 for the full control effect; potency is read from the fitted curve at half-maximal effect; tags tell the direction and shape of the fitted curve.
Compound,Potency,"activity, negative = inhibition"
CCn1ncc(/C=C/C(=O)Nc2c(C)nn(Cc3ccc(Cl)cc3Cl)c2C)c1C,"inconclusive: 39.8 µM [inhibitor, partial curve, poor fit]",
Cc1ccc(C(C)C)c(OCc2ccc(C(=O)N/N=C/c3cccc(O)c3O)cc2)c1,"inconclusive: 39.8 µM [inhibitor, single point]",
CCOc1ccc(NC(=S)NC(=O)c2cccnc2)c([N+](=O)[O-])c1,"inconclusive: 79.4 µM [inhibitor, single point]",
COc1cc(OC)c(-c2nc3c[n+](CC(=O)c4ccccc4)ccc3n2C)cc1OC,"inconclusive: 63.1 µM [inhibitor, partial curve, poor fit]",
CCOc1cc(CNCc2ccncc2)cc(Cl)c1OC,"inconclusive: 25.1 µM [inhibitor, partial curve, poor fit]",
NS(=O)(=O)c1ccc(CCNC(=O)C2CCN(c3ncnc4c3nc3n4CCCCC3)CC2)cc1,inactive,
C#CCOCCOCCOCCNc1nc(N2CCN(C(=O)CCCCCCCCCCNC(=O)Cn3cc(C[C@@H](C)O)nn3)CC2)nc(N2CCN(C(=O)CCCCCCCCCCNC(=O)[C@@H]([C@H](C)CC)n3cc(CCCCCN)nn3)CC2)n1,,inactive: -2.95% [at 2.33 µM]
Cc1cccc(-c2cc(C(=O)Nc3sc(C)c(C)c3C(N)=O)c3ccccc3n2)c1,,inactive: -1.71% [at 12.7 µM]
COC(=O)c1ccccc1NC(=O)c1noc2c1CCC2,active: 44.7 µM,
CCOc1ccccc1/C=C(\NC(=O)c1ccccc1)C(=O)NCCC(=O)O,"inconclusive: 50.1 µM [inhibitor, partial curve, poor fit]",
CCS(=O)(=O)c1ncc(Cl)c(C(=O)N2CCN(c3ccc(OC)cc3)CC2)n1,"inconclusive: 28.2 µM [inhibitor, single point]",
CCN(CC)c1ccc(NC(=O)c2cc(C)nc3c2c(C)nn3-c2ccc(C)cc2)c(C)c1,,inactive: -44.2%
Cc1cccc(OCC(=O)Nc2ccc(N3CCN(C(=O)c4ccco4)CC3)cc2)c1,active: 79.4 µM,
O=C(CCCCCNC(=S)Nc1ccccc1)C[N+](=O)[O-],active: 44.7 µM,
COc1ccc(CNC(=O)Cc2c(C)c3cc4c(C)coc4cc3oc2=O)cc1OC,,inactive: 4.8%
O=C(Cn1c2[n+](c3ccc(C(F)(F)F)cc31)CCCCC2)Nc1ccc(Br)cc1,active: 35.5 µM,
O=C(CSc1ccc(-c2ccccc2)nn1)NCC1CCCO1 (configuration not stated),active: 44.7 µM,
Cc1ccc(C)c(NC(=S)/C(=C(\[O-])c2ccc(OC(F)F)cc2)[n+]2ccccc2)c1,active: 39.8 µM,
COC(=O)c1ccc(Nc2ncnc3c2cnn3C)cc1,,inactive: -2.24%
Oc1ccc(N=C/C=C/c2ccc(Br)cc2)cc1-c1nc2ccccc2s1,"inconclusive: 1.58 µM [inhibitor, full curve, poor fit]",
COc1cccc(NC(=O)c2ccccc2-c2ccccc2C(=O)O)c1,,inactive: -12.2% [at 0.501 µM]

Compound,Potency,"activity, negative = inhibition"
CCOc1ccccc1NC(=S)NC(=O)CCc1ccccc1,,inactive: -3.32% [at 102 µM]
CCc1ccc(-c2cc(C)no2)cc1S(=O)(=O)NCCCN1CCN(c2ccccc2)CC1,"inconclusive: 50.1 µM [inhibitor, partial curve, poor fit]",
CCOc1ccc(C2c3c(oc4ccccc4c3=O)C(=O)N2CCCN2CCOCC2)cc1 (configuration not stated),,inconclusive: -97.2% [inhibitor]
COC(=O)C1C(=O)C2=C(CC1C)NC(C)=C(C(=O)OCCOc1ccccc1)C2c1ccc(C)o1 (configuration not stated),"inconclusive: 39.8 µM [inhibitor, single point]",
CCN(CC)C(=O)c1sc2c(c1C)c(=O)n(Cc1ccccc1)c(=O)n2Cc1ccccc1C,,inactive: -5.63%
COc1ccc(S(=O)(=O)N2CCCCC2)cc1NC(=O)CCc1nc2ccccc2c(=O)[nH]1,"inconclusive: 50.1 µM [inhibitor, partial curve, poor fit]",
COc1ccc(C(=O)NCc2nnc(SCC(=O)c3ccc(F)cc3)n2C)cc1OC,,inactive: -2.3% [at 0.501 µM]
CC(C)Nc1ccc(Cl)cc1[N+](=O)[O-],,inconclusive: -71.8% [inhibitor]
COc1ccc(CC(=O)Nc2cc(S(=O)(=O)N3CCCC3)ccc2Cl)c(OC)c1,"inconclusive: 3.98 µM [inhibitor, single point]",
COc1ccc(-c2nc3scc(CCNS(=O)(=O)c4ccc(Oc5ccccc5)cc4)n3n2)cc1OC,,inactive: 23.6%
COc1ccc(NC(=O)CCC2CCCCC2)cc1S(=O)(=O)N1CCCCC1,"inconclusive: 14.1 µM [inhibitor, partial curve, poor fit]",
O=[N+]([O-])c1ccc([N+](=O)[O-])c(Nc2ccc(N3CCOCC3)cc2)c1,,inactive: -35% [at 12.7 µM]
COC(=O)Cn1cnc2sc(C)c(S(=O)(=O)N3CCC(C)CC3)c2c1=O,"inconclusive: 31.6 µM [inhibitor, single point]",
COC(=O)c1ccc(NN=Nc2ccc(C)cc2)cc1,active: 7.94 µM,
CCCCn1c(N)c(N(CCOC)C(=O)c2cccc(-n3cnnn3)c2)c(=O)[nH]c1=O,"inconclusive: 50.1 µM [inhibitor, partial curve]",
COc1ccccc1C1C=C(c2ccc(Cl)cc2)Nc2nc(N3C(=O)CCC3=O)nn21 (configuration not stated),"inconclusive: 28.2 µM [inhibitor, single point]",
CCOC(=O)c1cc2sc(C)cc2n1CC(=O)NCc1ccc(F)cc1,"inconclusive: 89.1 µM [inhibitor, single point]",
O=C(CN1C(=O)NC2(CCCCCC2)C1=O)Nc1ccc(Br)cc1Br,,inactive: 25% [at 12.7 µM]
O=C(Cc1ccccc1)NNC(=O)C1CC=CCC1 (configuration not stated),,inactive: -7.02%
CCc1ccc(Nc2n[n+](-c3ccccc3)c(-c3cc(OC)c(OC)cc3Br)s2)cc1,"inconclusive: 44.7 µM [inhibitor, partial curve, poor fit]",
COc1cc(-c2nnc(Sc3ccc(C(F)(F)F)cc3[N+](=O)[O-])o2)cc(OC)c1OC,"inconclusive: 3.16 µM [inhibitor, single point]",
